From article PMC4336329 (PLoS ONE, 2015)
The campaign covered roughly 310,000 compounds. About 2,200 (0.71%) showed an effect of 50% or more. The effect is printed as a negative number. The list shows a part of the results.

target: human ether-à-go-go-related gene (hERG) potassium channel (human, UniProt Q12809); experiment: primary screen, population patch clamp on CHO cells stably expressing hERG
Sequence (Q12809 whole entry, looked up): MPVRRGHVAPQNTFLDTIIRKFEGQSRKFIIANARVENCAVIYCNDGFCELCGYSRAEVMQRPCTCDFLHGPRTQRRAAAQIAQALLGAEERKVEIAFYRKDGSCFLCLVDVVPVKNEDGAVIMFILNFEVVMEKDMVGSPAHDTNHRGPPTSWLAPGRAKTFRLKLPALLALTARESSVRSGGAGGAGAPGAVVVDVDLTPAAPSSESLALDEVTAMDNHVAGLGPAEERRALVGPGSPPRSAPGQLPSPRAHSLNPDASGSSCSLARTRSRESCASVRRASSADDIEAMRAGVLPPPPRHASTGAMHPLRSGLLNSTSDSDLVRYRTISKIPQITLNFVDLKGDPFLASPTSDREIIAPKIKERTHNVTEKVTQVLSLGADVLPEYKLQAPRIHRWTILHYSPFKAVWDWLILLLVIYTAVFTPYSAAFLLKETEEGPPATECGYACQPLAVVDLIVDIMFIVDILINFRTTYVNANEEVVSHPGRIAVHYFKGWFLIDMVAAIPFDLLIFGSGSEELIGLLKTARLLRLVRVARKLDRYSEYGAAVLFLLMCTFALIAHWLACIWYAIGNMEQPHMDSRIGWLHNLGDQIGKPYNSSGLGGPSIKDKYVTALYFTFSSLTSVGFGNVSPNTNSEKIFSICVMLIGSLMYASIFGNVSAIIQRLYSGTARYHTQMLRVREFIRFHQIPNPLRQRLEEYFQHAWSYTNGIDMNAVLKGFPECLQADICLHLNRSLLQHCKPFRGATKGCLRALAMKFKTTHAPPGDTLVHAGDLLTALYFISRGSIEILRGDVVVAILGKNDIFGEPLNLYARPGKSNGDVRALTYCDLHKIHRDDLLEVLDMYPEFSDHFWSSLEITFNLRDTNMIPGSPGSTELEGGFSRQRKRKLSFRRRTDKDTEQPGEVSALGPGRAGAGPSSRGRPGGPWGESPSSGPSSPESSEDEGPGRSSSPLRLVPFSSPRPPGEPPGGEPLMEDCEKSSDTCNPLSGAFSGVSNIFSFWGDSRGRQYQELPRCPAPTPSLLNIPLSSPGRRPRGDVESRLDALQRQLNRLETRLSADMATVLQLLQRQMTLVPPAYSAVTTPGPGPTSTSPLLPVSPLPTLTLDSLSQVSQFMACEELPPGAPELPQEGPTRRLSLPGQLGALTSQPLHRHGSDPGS

Structure (SMILES) | hERG current change (%, negative = inhibition) at 1uM [%]
CC(C)(Oc1ccc(Cl)cc1)C(=O)NCc1n[nH]c(=O)c2ccccc12 | 0.988
O=C(NC(NC(=S)Nc1cccc(C(=O)O)c1)C(Cl)(Cl)Cl)OCc1ccccc1 (stereo not shown) | 5.27
COC(=O)c1c(C)c(C)nc(N)c1C#N | 11.8
COc1cccc(C2=NOC(C(=O)Nc3ccc4c(c3)OCO4)C2)c1OC (stereo not shown) | 9.81
COc1ccc(-c2cc(C(=O)N/N=C/c3cccnc3)c3ccccc3n2)cc1 | 5.72
CCOC(=O)Cc1csc(SCC(=O)NC2CCCC(C)C2C)n1 (stereo not shown) | 7.88
CCNc1nc(NCC)n2c(SCC(=O)Nc3ccc(F)cc3)nnc2n1 | 3.11
C#CCn1c(=NC(=O)c2ccc(Br)s2)sc2cc(NC(C)=O)ccc21 | 2.71
Cc1noc(C)c1C(=O)NC(C)c1ccc(Cl)cc1Cl (stereo not shown) | 7.73
CCOC(=O)CNC(=O)CNC(=O)c1ccc(OC(C)C)cc1 | 11.7
Cc1ccc(C2=CSC3=NS(=O)(=O)CCN23)cc1 | 6.7
Cn1nnnc1SCC(=O)Nc1ccccc1-c1ccccc1 | 5.83
COc1cccc(-n2cc(C(=O)NC(C)C)c3ccccc3c2=O)c1 | 13.8
COc1ccc(-n2c(C)nnc2SCC(=O)NC2CC2)cc1 | 10.7
O=C(O)C1=C[C@H](c2ccc(Br)cc2)C[C@H](OCCCCO)O1 | 6.21
CN(CC(=O)N1CCCCC1)S(=O)(=O)c1cccc2nsnc12 | 10.8
O=c1cc(-c2ccccc2Cl)oc2c(NS(=O)(=O)c3cccs3)ccc(O)c12 | -5.83
N#CC1=C(N)OC2=C(CCc3ccccc32)C1c1ccccc1Cl (stereo not shown) | 19
CC(=O)Nn1cc2c(=O)n(C)c(=O)n(C)c2c1 | -0.83
COC(=O)c1ccccc1NC(=O)n1cc(C)cn1 | -2.41

Structure (SMILES) | hERG current change (%, negative = inhibition) at 1uM [%]
COc1cccc(N(C(=O)c2csnn2)C(C(=O)NC2CCCC2)c2ccccc2)c1 (stereo not shown) | 14.6
CNC(=O)C(=O)NCCc1ccc(Cl)cc1 | 11.3
Cc1cccc(CCNS(=O)(=O)c2ccc3c(c2)CCN3C(=O)CCC(=O)O)c1 | 19.2
O=C(NC12CC3CC(CC(C3)C1)C2)c1c(Cl)cccc1Cl | -30.9
COc1cc(NC(=O)c2ccco2)c(OC)cc1NC(=O)CSc1ncc(-c2ccc(F)cc2)[nH]1 | 5.59
O=C(O)CCC(=O)Nc1ccc2c(c1)Cc1cc(NC(=O)CCC(=O)O)ccc1-2 | 5.93
CN(C)S(=O)(=O)c1cccc(NC(=O)COC(=O)c2cc(=O)c3ccccc3o2)c1 | 13.9
Cc1noc(C)c1COc1ccc(C(=O)OCC(=O)NC23CC4CC(CC(C4)C2)C3)cc1 | 13.6
O=C(NCC(c1cccs1)N1CCOCC1)C1CCN(S(=O)(=O)c2c(Cl)cccc2Cl)CC1 (stereo not shown) | 8.2
CCCNC(=O)c1onc(CSc2ccc(F)cc2)c1C(=O)NCCC | 14.4
Cc1ccc(-c2nnc(SCC(=O)N/N=C/c3ccccc3C(=O)O)n2C2CCCCC2)cc1 | 12.5
Cc1nn(C)cc1/C=N/NC(=O)c1ccc2c(c1)OCO2 | 5.98
Cn1c(O)c(/C=C/C=Nc2ccccc2)c(=O)n(C)c1=O | 11.9
O=C(NCCN1CCN(Cc2ccccc2)CC1)C1CC(=O)N(C2CCCC2)C1 (stereo not shown) | 2.39
CC(=O)Nc1cc(C(=O)N(C)Cc2ccco2)ccc1Sc1ccc(Cl)cc1 | -4.85
CC(=O)OC1(c2ccc(C)cc2)CN2CCC1c1ccccc12.Cl (stereo not shown) | 14.3
CC(=O)c1sccc1NC(=O)CC(C)(C)CC(=O)O | 6.35
Cc1ccccc1CSCc1ccc(C(=O)NCCCN2CCOCC2)o1 | -11.9
O=C(NCCc1c[nH]c2ccccc12)Nc1cccc2ccccc12 | 9.7
COc1ccc(C(O)P(=O)(OC(C)C)OC(C)C)cc1OC (stereo not shown) | 14.2

Structure (SMILES) | hERG current change (%, negative = inhibition) at 1uM [%]
COCCn1c(=O)[nH]c2cc(C(=O)N3CCN(c4ccccc4)CC3)ccc2c1=O | 9.08
CCN(CC)CC(=O)Nc1ccc([N+](=O)[O-])cc1 | -2.18
O=C(Nc1ccon1)c1nc[nH]c1C(=O)N1CCc2ccccc2C1 | 24.3
O=C(CN1CCN(c2ccccn2)CC1)Nc1ccc(OCc2ccccc2)cc1 | 0.172
O=C(CN(c1ccccc1)S(=O)(=O)c1ccc(F)cc1)N1CCCCCC1 | -8
CCC[C@H]1COCCS(=O)(=O)N1Cc1ccccc1 | 5.11
Cc1cccc(NS(=O)(=O)c2ccc(C(=O)NCC(c3ccco3)N(C)C)cc2)c1C (stereo not shown) | 3.63
Fc1ccc(NC(=S)N2CCSC2c2cccs2)cc1 (stereo not shown) | 6.81
COc1ccc(CCN2C(=O)CC(Cc3ccc(C)cc3)C2=O)cc1OC (stereo not shown) | 5.53
CC(C)(C)c1cc(CN2CCCC(O)C2)c(O)c(C(C)(C)C)c1 (stereo not shown) | -7.24
N#Cc1ccccc1CN1C(=O)NC2(CCCCCC2)C1=O | 14.3
O=C(Nc1c(-c2cccs2)nc2ccccn12)c1ccc2ccccc2c1 | 12.4
COc1ccc(C(=O)N[C@H](C(=O)NCC2CCCCC2)C(C)C)cc1 | 14.2
O=C(NNc1cccc(Cl)n1)Nc1ccccc1F | 9.11
Cc1cccc(N2CCN(C(=O)c3ccc4nc(N5CCCCC5)sc4c3)CC2)c1C | 8.76
CC1(C)CC(=O)N(c2ccccc2)C1(C)O (stereo not shown) | 1.25
COc1ccc(Oc2ccccc2C=O)cc1 | 6.5
Cc1nn2c(N)c(-c3ccccc3)cnc2c1-c1ccc(Cl)cc1 | 14.3
